# Measured values published in article PMC4336329 (PLoS ONE, 2015).
# Hit rate of the full screen: of about 310,000 compounds, about 14,000 (4.5%) showed an effect of 50% or more. Effects have a minus sign here. Some of the results follow.
# Biological target: human ether-à-go-go-related gene (hERG) potassium channel (human, UniProt Q12809)
# Assay: primary screen, population patch clamp on CHO cells stably expressing hERG
# 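Also: peak tail current of the secondary pulse compared with the same well before compound.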
# Chain of human ether-à-go-go-related gene (hERG) potassium channel (Q12809 whole entry, looked up): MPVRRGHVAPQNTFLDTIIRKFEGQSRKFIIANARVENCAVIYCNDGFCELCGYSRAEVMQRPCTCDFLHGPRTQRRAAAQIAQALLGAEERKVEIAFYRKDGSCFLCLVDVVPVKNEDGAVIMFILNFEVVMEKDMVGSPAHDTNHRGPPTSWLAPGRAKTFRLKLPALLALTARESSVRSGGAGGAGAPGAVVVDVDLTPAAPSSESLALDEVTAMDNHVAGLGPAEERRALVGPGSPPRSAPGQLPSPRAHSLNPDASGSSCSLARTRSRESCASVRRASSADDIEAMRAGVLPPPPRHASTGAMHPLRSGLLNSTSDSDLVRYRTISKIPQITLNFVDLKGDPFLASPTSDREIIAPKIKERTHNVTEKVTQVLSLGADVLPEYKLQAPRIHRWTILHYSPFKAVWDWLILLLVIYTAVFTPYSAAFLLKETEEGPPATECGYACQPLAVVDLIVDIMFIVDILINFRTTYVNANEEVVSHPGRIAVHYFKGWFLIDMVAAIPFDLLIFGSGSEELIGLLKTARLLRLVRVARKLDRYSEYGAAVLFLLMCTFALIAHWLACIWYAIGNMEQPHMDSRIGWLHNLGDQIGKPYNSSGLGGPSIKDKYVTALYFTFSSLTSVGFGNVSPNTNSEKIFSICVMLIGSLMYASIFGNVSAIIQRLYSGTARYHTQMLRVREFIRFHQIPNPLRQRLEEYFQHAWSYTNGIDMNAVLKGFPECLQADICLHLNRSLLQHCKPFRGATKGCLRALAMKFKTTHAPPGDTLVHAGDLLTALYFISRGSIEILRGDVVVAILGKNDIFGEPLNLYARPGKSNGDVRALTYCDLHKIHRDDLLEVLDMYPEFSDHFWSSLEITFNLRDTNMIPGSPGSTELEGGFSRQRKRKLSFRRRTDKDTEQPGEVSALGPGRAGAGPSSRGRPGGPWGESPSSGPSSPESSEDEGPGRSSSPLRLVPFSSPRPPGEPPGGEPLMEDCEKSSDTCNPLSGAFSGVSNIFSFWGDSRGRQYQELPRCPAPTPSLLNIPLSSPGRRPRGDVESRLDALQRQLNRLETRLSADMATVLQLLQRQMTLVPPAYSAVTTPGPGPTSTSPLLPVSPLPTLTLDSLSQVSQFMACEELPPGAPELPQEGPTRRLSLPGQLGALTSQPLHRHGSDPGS
row,Compound,"hERG current change (%, negative = inhibition) at 10uM [%]"
1,COCCCn1c(SCC(=O)Nc2sc3c(c2C#N)CCCC3)nnc1-c1ccncc1,-49.4
2,Cc1csc(NC(=O)c2ccc3c(c2)OCO3)n1,-0.0676
3,COc1ccccc1CNC(=O)c1cc(-c2ccccc2)nn1CC1CC(c2cccnc2)=NO1 (stereo not shown),-71.2
4,O=S(=O)(Nc1ccccc1)c1ccc(F)cc1,-10.6
5,CC(C)Oc1ccc(CCC(=O)NNC(=O)CCC(=O)O)cc1,14.3
6,CC(C)(C)NC(=O)c1ccc2c(c1)CCO2,4.77
7,COc1ccccc1N1CCN(CC(O)COc2ccc(C)c(C)c2)CC1.Cl (stereo not shown),-55.9
8,CCOc1ccc(NC(=O)CN(C)C(=O)c2ccccc2SCC(=O)N2CCCC2)cc1OCC,21.3
9,COc1ccc(/C=C(\NC(=O)c2ccccc2)C(=O)NCc2cccnc2)cc1,-70.5
10,C/C(=N/Nc1ccnc2cc(Cl)ccc12)c1ccc(N)cc1,-48.5
11,Cc1c(NC(=O)COC(=O)/C=C/c2cccc(Br)c2)c(=O)n(-c2ccccc2)n1C,-15.8
12,CCOC(=O)CN1C(=O)C(O)(CC(=O)c2ccco2)c2ccccc21 (stereo not shown),0.365
13,Cc1cc(OCC(O)CN2CCN(C)CC2)ccc1C(C)C.Cl (stereo not shown),-1.06
14,FC(F)(F)c1ccccc1CN1CCN(Cc2ccccc2)CC1,0.078
15,COc1ccc2cc(C(N)=O)/c(=N\NC(=O)c3ccccc3)oc2c1,-8.42
16,NC(=O)CC(NC(=O)Cc1ccc(Br)cc1)c1ccc(N2CCC(Br)CC2)c([N+](=O)[O-])c1 (stereo not shown),3.39
17,Cc1cccc(/C=N/n2c(C)nnc2C)c1,-0.651
18,CCC(C)C(=O)Nc1ccccc1N1CCN(c2ccc(F)cc2)CC1 (stereo not shown),4.44
19,O=C(NCCCN1CCOCC1)c1cccc(S(=O)(=O)Nc2cc(Cl)ccc2Cl)c1,-14.6
20,CCOc1ccc(S(=O)(=O)c2c(C(=O)c3ccc(C)cc3)cnc3cc4c(cc23)OCCO4)cc1,4.28
21,CC(C)CCNC(=O)C1CC(c2ccc(C(F)(F)F)cc2)=NO1 (stereo not shown),11.2
22,Cc1cc(C(=O)COc2cccnc2[N+](=O)[O-])c(C)n1Cc1ccco1,18.2

row,Compound,"hERG current change (%, negative = inhibition) at 10uM [%]"
1,C/C(=N\Nc1ccc(C(F)(F)F)cn1)c1ccc(S(=O)(=O)NCc2ccco2)cc1,18.7
2,CN(CC(=O)Nc1ccncc1)S(=O)(=O)c1ccc(Cl)cc1,-5.97
3,CCOC(=O)C1(C)NC(c2cccc(C)c2)C2C(=O)N(c3ccccc3)C(=O)C21 (stereo not shown),-6.22
4,Cc1cccc(N=C(NO)c2nonc2N)c1,31.8
5,C#CCO[C@@H]1C[C@H](n2ccc(NC(=O)c3ccccc3)nc2=O)O[C@@H]1CO,-0.478
6,O=C1CSC(c2ccccn2)N1c1ccccc1 (stereo not shown),-0.577
7,Cc1oc(-c2ccccc2F)nc1CS(=O)CC(=O)NCc1ccccc1 (stereo not shown),-17.5
8,CCOC(=O)Cc1c(C)nc2c(-c3ccccc3)c(C)[nH]n2c1=O,-10.6
9,CC(=O)N1CCN(c2nc(C)nc3sc4c(c23)CCC(C)C4)CC1 (stereo not shown),-19.3
10,CC(C)c1ccc2nc(SCC(=O)NCC3CCCO3)c(C#N)cc2c1 (stereo not shown),1.97
11,CCN(CC)CCn1c(O)c(N=O)c2ccccc21,-11.1
12,CCCCC(=O)Nc1ccc2c3c(cccc13)CC2,0.263
13,Cc1ccc(C(=O)Nc2cccc(-c3ccc(N4CCOCC4)nn3)c2)cc1[N+](=O)[O-],1.45
14,CC(C(=O)O)c1ccc(C(=O)c2ccccc2)s1 (stereo not shown),-3.58
15,CCOC(=O)COc1nc(-c2ccc(C)cc2)cc(-c2ccco2)c1C#N,-5.78
16,COc1cc2ccc(=O)oc2c(O[C@@H]2O[C@H](CO)[C@@H](O)[C@H](O)[C@H]2O)c1O.O,12.5
17,Brc1cc(Br)c2nc3c(cc2c1)CCC3,16.8
18,O=C(COC(=O)[C@@H]1CC(O)CN1S(=O)(=O)c1ccc2c(c1)OCCO2)NCc1ccc(F)cc1 (stereo partly shown),11.8
19,CC1CC(C)CN(C(=O)CSCC(=O)O)C1 (stereo not shown),1.3
20,CCOc1ccccc1C(=O)Nc1nn[nH]n1,12.3
21,COc1cccc(-c2cc(C(=O)N/N=C/c3ccc(OC)c(COC(C)=O)c3)c3ccccc3n2)c1,7.5
22,O=C(COC(=O)/C=C/c1cc(Br)ccc1F)Nc1ccc2[nH]c(=O)[nH]c2c1,1.53

row,Compound,"hERG current change (%, negative = inhibition) at 10uM [%]"
1,CC(C)CCN(Cc1ccco1)S(=O)(=O)c1ccc(-c2ccc(=O)[nH]n2)s1,-0.664
2,COc1ccccc1-n1nc(C)cc1N,19.8
3,COc1ccc(OC)c(CC(=O)NC(c2ccccc2)c2ccccc2)c1,8.16
4,CC1(C)C/C(=N\O)C(C(O)c2cccc([N+](=O)[O-])c2)C(C)(C)N1 (stereo not shown),17.2
5,Cc1ccc(S(=O)(=O)Nc2cccc(C(=O)NCc3ccc(S(N)(=O)=O)cc3)c2)cc1,21.7
6,N#Cc1ccccc1NC(=O)COC(=O)COc1ccccc1[N+](=O)[O-],21.7
7,O=c1cc(N2CCCCC2)c(-c2ccccc2)n[nH]1,25.1
8,Cc1cccnc1NC(=O)CCCc1c[nH]c2ccccc12,20.5
9,O=c1c2nncn2c2cccnc2n1CCNc1ncc(C(F)(F)F)cc1Cl,-23.4
10,CCOC(=O)c1cnn(Cc2cccc(Cl)c2)c1C,-7.23
11,CN(CCCn1c(=S)[nH]c2ncccc2c1=O)Cc1ccccc1,-12.5
12,Cc1cc(OC(=O)CCNC(=O)OC(C)(C)C)c2c3c(c(=O)oc2c1)CCC3,-13.1
13,Cc1ccc(S(=O)(=O)Cc2ccc(C(=O)N3CCN(c4cccc(C)c4C)CC3)o2)cc1,-7.95
14,Cc1noc(C)c1COc1ccccc1C(=O)N(C)CC(=O)Nc1cccc(F)c1,3.43
15,COc1ccc(N2CCN(c3nc4ccc(C)cn4c(=O)c3C=O)CC2)cc1,-39.4
16,O=C(NCC(=O)N1CCN(S(=O)(=O)/C=C/c2ccccc2)CC1)c1ccc(Cl)cc1,-23.1
17,Cc1ccc(-c2cc(C(=O)Nc3cc(C)on3)c3ccccc3n2)cc1,4.13
18,COc1ccc(C(CCNCc2ccc(N(C)C)cc2)C(C)C)cc1 (stereo not shown),-40.5
19,COc1ccc(NC(=O)C2CCN(c3ncnc4c3nc3n4CCCCC3)CC2)cc1Cl,-0.67
20,COc1ccc(S(=O)(=O)NCc2ccco2)cc1-c1nnc2c3ccccc3c(C)nn12,-50.3
21,COc1ccc(C(=O)Nc2ccc3[nH]ccc3c2)cc1,18.1
22,CC(=O)Oc1cccc(C(=O)Nc2ccc(NC(=O)c3cccs3)cc2)c1,3.25

row,Compound,"hERG current change (%, negative = inhibition) at 10uM [%]"
1,N#Cc1cn(-c2ccccc2)nc1-c1ccco1,11.2
2,O=C(O)CN1C(=O)/C(=C\c2cccc(OCc3ccc(Cl)cc3Cl)c2)SC1=S,6.27
3,COCCCNC(=O)c1ccc(NS(C)(=O)=O)cc1,-2.85
4,COc1ccc(NC(=O)C2CCCN(C(=O)Nc3cccc(OC)c3)C2)cc1 (stereo not shown),-19.2
5,CCOC(=O)C1CCCCN1Cc1cccc(OC)c1OC (stereo not shown),5.61
6,O=C(CN1CCN(CC(=O)Nc2ccccn2)CC1)Nc1ccccn1,-36
7,CN(c1ccc(C(=O)NCCC2=CCCCC2)cc1)S(C)(=O)=O,4.82
8,O=C(Nc1cccc2nsnc12)c1ccc2c(c1)OCO2,-6.74
9,O=c1c2c([nH]n1-c1ccccc1)CCCC2,19.6
10,Cc1cc(=O)[nH]c(N/N=C2/CCCC/C2=C\c2ccccc2)n1,-19.1
11,COc1ccc(NC(=O)C2CCN(C(=O)C3CC(=O)N(c4ccc(C)cc4)C3)CC2)c(OC)c1 (stereo not shown),-12.7
12,CCOc1cc(C(=O)NC2CCCCCCC2)cc(OCC)c1OCC,1.23
13,CCn1c2c(c3cc(OCC(C)C)ccc31)CCCC2=O,6.13
14,COc1ccc2c(c1)OC(O)(C(F)F)CC2=O (stereo not shown),3.79
15,COc1ccc(CCNC(=O)CC2Nc3ccccc3NC2=O)cc1 (stereo not shown),0.25
16,O=C(NCC1CCCO1)c1cc2ccccc2[nH]1 (stereo not shown),17.6
17,COc1cc(S(=O)(=O)N2CCN(Cc3ccc4c(c3)OCO4)CC2)c(C)cc1C,-6.21
18,COc1ccc(C(=O)Nc2ccc(NC(C)=O)cc2)cc1S(=O)(=O)N1CCCCC1C (stereo not shown),1.47
19,Nc1cc(=O)[nH]n1C1CCCCC1,19.7
20,CCN(CC)CCN1CNC(=S)N(c2ccccc2OC)C1,8.53
21,C/C(=N/NC(=O)CNC(=O)c1cccnc1)c1cccc([N+](=O)[O-])c1,2.99
22,CN(c1ccc(OC(=O)CN2C(=O)NC3(CCCC3)C2=O)cc1)S(=O)(=O)c1ccccc1,16.7
